In article PMC7718735:
No constants are given. Whether binding was seen depends on the method and setting. Some entries that bind do so weakly or less than the wild type.

T1: Lem2 MYTH bait (S. pombe) (UniProt Q10109)
T1 sequence: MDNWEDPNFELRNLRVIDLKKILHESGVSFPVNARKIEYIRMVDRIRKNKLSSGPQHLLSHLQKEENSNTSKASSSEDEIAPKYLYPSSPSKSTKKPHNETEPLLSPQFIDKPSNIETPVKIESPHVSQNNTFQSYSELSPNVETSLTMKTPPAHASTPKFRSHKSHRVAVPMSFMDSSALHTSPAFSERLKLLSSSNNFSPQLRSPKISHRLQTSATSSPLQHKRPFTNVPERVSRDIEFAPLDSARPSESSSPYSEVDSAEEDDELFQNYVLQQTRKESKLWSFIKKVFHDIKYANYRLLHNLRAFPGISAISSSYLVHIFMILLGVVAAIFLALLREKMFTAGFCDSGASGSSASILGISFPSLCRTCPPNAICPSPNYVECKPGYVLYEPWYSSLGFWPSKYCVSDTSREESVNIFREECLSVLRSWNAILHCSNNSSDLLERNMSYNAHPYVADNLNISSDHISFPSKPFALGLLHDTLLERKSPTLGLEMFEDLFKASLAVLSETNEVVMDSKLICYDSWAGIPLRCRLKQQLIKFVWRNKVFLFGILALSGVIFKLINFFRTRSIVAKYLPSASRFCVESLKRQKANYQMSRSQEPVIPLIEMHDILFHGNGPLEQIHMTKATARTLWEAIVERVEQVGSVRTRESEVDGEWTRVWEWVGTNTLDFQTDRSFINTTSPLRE

T2: Ima1 MYTH bait (S. pombe) (UniProt O13681)
T2 sequence: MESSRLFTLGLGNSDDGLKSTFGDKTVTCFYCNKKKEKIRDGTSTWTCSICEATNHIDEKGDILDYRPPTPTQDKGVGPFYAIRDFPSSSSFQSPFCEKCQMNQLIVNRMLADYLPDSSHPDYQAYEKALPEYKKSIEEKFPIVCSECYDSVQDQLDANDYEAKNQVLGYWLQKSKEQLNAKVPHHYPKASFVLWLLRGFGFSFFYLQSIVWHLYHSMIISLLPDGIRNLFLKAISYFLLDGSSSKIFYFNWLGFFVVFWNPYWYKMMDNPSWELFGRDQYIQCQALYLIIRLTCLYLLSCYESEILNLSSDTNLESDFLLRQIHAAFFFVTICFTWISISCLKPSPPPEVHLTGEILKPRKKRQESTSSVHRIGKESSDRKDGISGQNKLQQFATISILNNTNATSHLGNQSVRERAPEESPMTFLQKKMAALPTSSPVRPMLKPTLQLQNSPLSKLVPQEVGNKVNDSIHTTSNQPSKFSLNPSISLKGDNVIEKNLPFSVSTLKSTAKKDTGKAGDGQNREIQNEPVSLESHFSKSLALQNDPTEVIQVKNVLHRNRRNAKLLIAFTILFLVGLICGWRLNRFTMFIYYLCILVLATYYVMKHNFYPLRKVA

T3: Cut11 MYTH bait (wild type) (S. pombe) (UniProt O13961)
T3 sequence: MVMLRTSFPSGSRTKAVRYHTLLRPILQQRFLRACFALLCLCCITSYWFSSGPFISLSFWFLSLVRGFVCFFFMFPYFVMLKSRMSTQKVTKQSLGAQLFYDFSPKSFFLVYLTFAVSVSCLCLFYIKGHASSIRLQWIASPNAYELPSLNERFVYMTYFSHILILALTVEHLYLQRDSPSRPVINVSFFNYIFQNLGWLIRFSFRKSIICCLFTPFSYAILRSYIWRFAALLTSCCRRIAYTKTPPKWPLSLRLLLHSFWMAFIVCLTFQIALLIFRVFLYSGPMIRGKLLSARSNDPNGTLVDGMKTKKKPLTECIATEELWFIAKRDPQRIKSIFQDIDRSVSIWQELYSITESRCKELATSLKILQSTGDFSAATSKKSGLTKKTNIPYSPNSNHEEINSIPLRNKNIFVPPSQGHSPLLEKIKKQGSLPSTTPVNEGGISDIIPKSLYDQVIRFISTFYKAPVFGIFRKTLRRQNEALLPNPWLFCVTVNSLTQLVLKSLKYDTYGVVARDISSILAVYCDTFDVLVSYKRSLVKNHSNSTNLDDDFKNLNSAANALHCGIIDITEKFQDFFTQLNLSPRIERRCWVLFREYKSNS


Tests used:
Test in all cases: two-hybrid; split-ubiquitin membrane yeast two-hybrid (MYTH) in S. cerevisiae; bait-Cub-LexA-VP16 strains mated with the arrayed Nub prey library, diploids spotted in quadruplicate on SD-leu-trp-ade-his with 25 mM 3-AT, imaged every 24 hr for 4 days; positive by a colony density cutoff
[1] = biological target: T1, Lem2 MYTH bait (S. pombe)
[2] = biological target: T2, Ima1 MYTH bait (S. pombe)
[3] = biological target: T3, Cut11 MYTH bait (wild type) (S. pombe)

Binder | binding [1] | binding [2] | binding [3]
Lem2 MYTH prey (protein, UniProt Q10109 1-688) MDNWEDPNFELRNLRVIDLKKILHESGVSFPVNARKIEYIRMVDRIRKNKLSSGPQHLLSHLQKEENSNTSKASSSEDEIAPKYLYPSSPSKSTKKPHNETEPLLSPQFIDKPSNIETPVKIESPHVSQNNTFQSYSELSPNVETSLTMKTPPAHASTPKFRSHKSHRVAVPMSFMDSSALHTSPAFSERLKLLSSSNNFSPQLRSPKISHRLQTSATSSPLQHKRPFTNVPERVSRDIEFAPLDSARPSESSSPYSEVDSAEEDDELFQNYVLQQTRKESKLWSFIKKVFHDIKYANYRLLHNLRAFPGISAISSSYLVHIFMILLGVVAAIFLALLREKMFTAGFCDSGASGSSASILGISFPSLCRTCPPNAICPSPNYVECKPGYVLYEPWYSSLGFWPSKYCVSDTSREESVNIFREECLSVLRSWNAILHCSNNSSDLLERNMSYNAHPYVADNLNISSDHISFPSKPFALGLLHDTLLERKSPTLGLEMFEDLFKASLAVLSETNEVVMDSKLICYDSWAGIPLRCRLKQQLIKFVWRNKVFLFGILALSGVIFKLINFFRTRSIVAKYLPSASRFCVESLKRQKANYQMSRSQEPVIPLIEMHDILFHGNGPLEQIHMTKATARTLWEAIVERVEQVGSVRTRESEVDGEWTRVWEWVGTNTLDFQTDRSFINTTSPLRE | no binding |  | 
Nup85 MYTH prey (protein, UniProt Q9UUE5 1-675) MESSDEVDLPVYHLQNAPIENGKLNDWRSKGRTVAFKLHPFLRKGLAYINNKEFDENTLKSDKFEEVESLVYEFSTPSTLIEPNYLLTAWHELWEELQDTYMTPILDSEANLLLLTQFYGKISSLFRSKIIQVLEELQSRINEGEKDCQPVLDSLWEVESAWRCAEAIYFPPSSPYTLSTGILDWVNAYDPQPIADDGLEIMAYRIPYQHPEFWPYVNKTAIRGLFEQTISCLEMSGLTKEWPVLKETVDELIDILRYSPCTHQKRIRSVSDFERRWKLWRSRLANLRHVVKKHRDIDSEVLDDFVVLLDILNGNKEVIMLSCAHWQEYFSALAFLYGPLDCKNPEDISLLYQLATGEDSKFYVNGTIEYEQICVNLCSNEPLNAIKHAYLLDLGLAVHLADLLSKSGHLRDYITEEYPITLREHLILEYGQCVLESRNLWQTSFAYWKCVADSGYQRIKACIPYVPLSDVDAKETALQLCKQLKLRDEAQLVLTHWADELIARNHYGEALIALDNAANYSALNRVTWELFDICIAEKKSFSPDKDELLYELFSSPKACTPTLASIISPAATIHQYFFYLQHKKELNASELLVGLLTMVDFPSSRFPKLLELLHEFLNNPLQSNSTDFKLSLVNVYDCIAVLQDQQSTVKDQQLLLSIHERLSSAISWYFLHLKK | no binding |  | no binding
Cho1 MYTH prey (protein, UniProt O74827 1-196) MAIFEINNSFLICAVSIALNPLLWNIAARSEYNHKTLTKLANGDSKKACYMLAACIFVAGIVRDLIYQNALKQQPTLGIFMNPLVQGIAKLIFCFGSVLVLSSMYKLGLVGTYLGDYFGFLLPERVSGFPFNVNDNPMYNGSTLCFLSTALRYGKVAGLLLTLEVFFVYRIALKFEEPFTAKIYAARDSKQAKKSE |  | binds | 

The next lines start with the values.

binding [1] | binding [2] | binding [3] | Binder
 | binds |  | Sur2 MYTH prey (protein, UniProt O94298 1-293) MVTTVEMLTTWNPVTVSLVSPVIIYWVASAFFGFLHYIELPVFEKYRIHPPEEIARRNRVPQMAVVKAVLFQQLCEVVVGIALAMFEGYPEPIDEAKQMLRYEAFFSKNLPALLQVAPFAPKLAYNFIVPAFQYFFAFFIIDSWQYFWHRYLHYNKKLYNMIHAHHHRLQVPYAMGALYNHPFEGLILDTFGAGVAYLAAGLSPQQAVIFFTLSTLKTVDDHCGYVFPYDPLQMFFANNARYHDLHHQPYGFQKNFSQPFFTFWDHVLGTYMPPKSETPYEKKQKAKNAKKVN
 | binds |  | Rbd2 MYTH prey (protein, UniProt O74926 1-251) MIFMILGRSKEFILKLPIWTQIITYIAILVYALSFFGISTGVLSLSWIGLLQKRQLYEIITYVTLHLSMLHIVFNFVSLLPAMSQFEKKQGTLACILVTVIPYTLFPGIMHLIVYHFFLRKDYVSIAGLSGWAFAFISASCVHSPQRLISFFNLFSIPAYCFPIIYLIMTTILVPKASFIGHASGAVMGYCTPFMLGSIPLKSWAQNVDPIFQSWVKNYHSFDQLSHAQLPIAEPLSTFSSFPGKGTRLGG
